In paper PMC6633398:
No constants are given. Whether binding was seen depends on the method and setting. Binding seen in cells or lysates may run through a third protein. Some entries that bind do so weakly or less than the wild type.

Protein sequences, listed by entry. Tags and fused reporters are not part of them. Lines headed by an entry give the natural chain unless they say otherwise; changes in a name come on top.
UniProt O43681: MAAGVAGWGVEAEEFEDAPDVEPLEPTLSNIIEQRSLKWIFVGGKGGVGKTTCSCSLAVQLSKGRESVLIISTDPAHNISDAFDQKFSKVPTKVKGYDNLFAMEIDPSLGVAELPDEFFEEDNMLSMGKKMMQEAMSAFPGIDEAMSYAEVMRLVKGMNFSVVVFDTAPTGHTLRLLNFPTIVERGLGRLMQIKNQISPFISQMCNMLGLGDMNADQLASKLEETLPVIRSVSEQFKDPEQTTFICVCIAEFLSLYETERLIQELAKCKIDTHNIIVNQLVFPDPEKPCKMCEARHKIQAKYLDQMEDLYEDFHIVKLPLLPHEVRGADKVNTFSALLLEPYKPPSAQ
UniProt O95292: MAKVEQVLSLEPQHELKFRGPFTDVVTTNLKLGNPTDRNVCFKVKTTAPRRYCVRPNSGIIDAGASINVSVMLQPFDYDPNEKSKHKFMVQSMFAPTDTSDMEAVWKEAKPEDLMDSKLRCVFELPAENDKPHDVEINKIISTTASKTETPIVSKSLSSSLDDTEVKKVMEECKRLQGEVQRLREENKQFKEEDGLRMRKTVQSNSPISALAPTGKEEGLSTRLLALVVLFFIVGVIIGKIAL

Target: c-Myc–TRC40_(D74E), ATPase-impaired trap mutant of TRC40 (UniProt O43681)
Experiment: co-IP; c-Myc–TRC40 variants expressed in transfected HEK293 cells; precipitated with anti-c-Myc agarose from the cytosolic fraction (180,000 g, 1 h) in the absence of detergent; IP buffer 50 mM HEPES, 150 mM NaCl, 1.5 mM MgCl2, 1 mM EGTA, pH 7.4; 2.5 h; endogenous TA proteins detected by western blot

Row | binding | Substance
1 | binds | vesicle-associated membrane-protein-associated protein VAPB (from UniProt O95292 1-243)
2 | no binding | nesprin SYNE1 (from UniProt Q8NF91 1-8797)
